The whole screen tested about 48,000 compounds, of which about 550 (1.1%) were called active. Another 4% or so got no clear call; they are omitted. No stated cut-off is given here; in the data, active means potency below about 15 µM; inconclusive means mostly about 16 µM to 33 µM; inactive means weaker than that. This is one part of the list.
Target: Lysosomal acid glucosylceramidase (Homo sapiens) (UniProt P04062)
Assay: Glucocerebrosidase;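 further: the screen sought inhibitors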
Conditions: purified enzyme, resorufin glucoside fluorescence (screen aimed at inhibitors), 20 min
Outline: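 Compounds titrated against 0.2 nM normal enzyme, 30 uM resorufin beta-D-glucopyranoside substrate, citrate/phosphate buffer with taurocholate and tween-20, pH 5.9. Reaction ran 20 min at room temperature; fluorescence (Ex 548/Em 600) gave AC50.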
Potency means the concentration at half of the fitted maximal effect.

Sequence of UniProt P04062 (P04062 whole entry, looked up): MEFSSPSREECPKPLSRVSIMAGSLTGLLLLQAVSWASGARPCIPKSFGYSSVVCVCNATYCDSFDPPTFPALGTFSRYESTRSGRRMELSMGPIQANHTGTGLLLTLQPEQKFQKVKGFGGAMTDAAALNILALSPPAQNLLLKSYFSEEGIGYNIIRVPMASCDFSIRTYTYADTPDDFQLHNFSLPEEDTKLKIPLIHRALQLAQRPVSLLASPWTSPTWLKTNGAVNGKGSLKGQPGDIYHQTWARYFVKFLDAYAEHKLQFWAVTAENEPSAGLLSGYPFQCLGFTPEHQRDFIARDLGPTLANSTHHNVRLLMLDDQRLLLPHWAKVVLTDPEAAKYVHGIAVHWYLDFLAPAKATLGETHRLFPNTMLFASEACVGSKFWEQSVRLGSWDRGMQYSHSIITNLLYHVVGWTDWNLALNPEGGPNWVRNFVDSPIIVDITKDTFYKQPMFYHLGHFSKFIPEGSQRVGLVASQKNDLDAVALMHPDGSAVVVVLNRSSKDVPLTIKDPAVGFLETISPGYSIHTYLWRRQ

Potency, inactive:
CC1CCCN(CCCNC(=O)C2CC(=O)N(c3ccc(F)c(Cl)c3)C2)C1 (centres undefined) > 76.9 µM
CCCn1cnc2c(cnn2-c2ccc(F)cc2)c1=O > 76.9 µM
O=C(O)c1cc(NCc2cccs2)ccc1N1CCOCC1 > 76.9 µM
COc1ccc(S(=O)(=O)Nc2ccccn2)c(C)c1C > 76.9 µM
CCCNS(=O)(=O)c1ccc(CCC(=O)NCc2ccc3c(c2)OCO3)cc1 > 76.9 µM
Cn1c(SCC(=O)NCc2ccco2)nnc1-c1cccs1 > 76.9 µM
COc1ccc(OC)c(NC(=O)C2CCN(c3cc(-c4ccccc4)nc4ncnn34)CC2)c1 > 76.9 µM
O=C(Nc1cnc2ccccc2c1)c1cccc(-n2cnnn2)c1 > 76.9 µM
CCCCC(=O)Nc1ccc(C(=O)Nc2ccc3c(c2)OCO3)cc1 > 76.9 µM
Clc1ccc(-n2cnnn2)cc1 > 76.9 µM
O=Nc1c2nc3ccccc3n(O)c-2c2ccccc12 > 76.9 µM
Fc1ccc(C(c2nnnn2Cc2cccs2)N2CCN(C3CCCCC3)CC2)cc1 (centres undefined) > 76.9 µM
COc1ccc2c(c1)c(=O)cc(C)n2CC(=O)NCc1ccco1 > 76.9 µM
CCCn1c(=C(C#N)C#N)s/c(=C2\C=Cc3ccccc3N2CC)c1=O > 76.9 µM
Cc1ccc(N(C(C)C(=O)Nc2ccc(S(=O)(=O)N3CCOCC3)cc2)S(C)(=O)=O)cc1C (centres undefined) > 76.9 µM
O=C(CN1CCN(c2ccc(F)cc2)CC1)N1CCC(Cc2ccccc2)CC1 > 76.9 µM
Cc1ccn(S(=O)(=O)c2ccc(C(C)(C)C)cc2)n1 > 76.9 µM
Cc1ccc(C(=O)NCC(=O)OCC(=O)c2c(N)n(C)c(=O)n(C)c2=O)s1 > 76.9 µM
CCOC(=O)c1ccc(N2C(=O)CC(C(=O)OC)=C2C)cc1 > 76.9 µM
O=S(=O)(c1cccc(S(=O)(=O)N2CCN(c3ncccn3)CC2)c1)N1CCOCC1 > 76.9 µM
CC(=O)Nc1ccc(S(=O)(=O)N2CCSC2c2ccccc2)cc1 (centres undefined) > 76.9 µM
CC(C)(C)OC(=O)N1CCN(c2ccc(NC(=O)Cn3nnc(-c4ccccc4)n3)cc2)CC1 > 76.9 µM
Cc1ccc(S(=O)(=O)NC2=NCN(C3CCCCC3)CN2)cc1 > 76.9 µM
Cc1ccc(NC(=O)CSc2nnc(-c3ccccc3Br)o2)cc1C > 76.9 µM
O=C(CN1CCN(c2ccc(Cl)cc2)CC1)Nc1cccc(F)c1 > 76.9 µM
Cc1c(C(=O)NCc2ccccn2)sc2nc(-c3ccc(F)cc3)cn12 > 76.9 µM
O=S(=O)(N1CCOCC1)N1CCCN(S(=O)(=O)N2CCOCC2)CC1 > 76.9 µM
N#CC(C(=O)OCc1ccccc1)c1nc2ccccc2nc1N1CCOCC1 (centres undefined) > 76.9 µM
CCOc1ccc(-n2c(=O)c3c(C)c(C)sc3n(CC(=O)NCc3ccco3)c2=O)cc1 > 76.9 µM
O=C(Nc1ccc2c(c1)OCO2)C1CC(c2c(F)cccc2Cl)=NO1 (centres undefined) > 76.9 µM
CCCCNC(=O)c1ccc(CS(=O)(=O)c2cccc(C(F)(F)F)c2)o1 > 76.9 µM
O=C(CN1CCCN(Cc2ccc(F)cc2Cl)C1=O)NCc1ccccc1 > 76.9 µM
CCCOc1ccc(NC(=O)C2CC(=O)N(C(C)C)C2)cc1 (centres undefined) > 76.9 µM
C=CCC1c2cccc(C(=O)O)c2C(=O)N1c1cccc(C)c1 (centres undefined) > 76.9 µM
Cc1ccccc1Nc1nc(N)nc(CN2CCN(c3ccccn3)CC2)n1
CCOC(=O)c1[nH]c(C)c(/C(O)=C2\C(=O)C(=O)N(CCCN(C)C)C2c2cccnc2)c1C (centres undefined) > 76.9 µM
O=C(c1ccco1)N1CCN(C(=O)C(Cc2ccccc2)NS(=O)(=O)c2cccs2)CC1 (centres undefined) > 76.9 µM
COc1ccc(NC(=O)CN2CCN(CC(=O)Nc3ccc(OC)c(OC)c3)CC2)cc1 > 76.9 µM
CCOc1ccc(-c2nnn(CC(=O)Nc3cc(OC)ccc3OC)n2)cc1OCC > 76.9 µM
CCOc1ccc(CCNC(=O)CN(C)S(=O)(=O)c2cccc3nsnc23)cc1OCC > 76.9 µM
COc1ccc(NC(=O)c2ccc(COc3ccccc3Br)o2)cc1OC > 76.9 µM
CC(C)OC(=O)CSc1nnc(-c2cnccn2)n1Cc1ccco1 > 76.9 µM
Cc1cc(NC(=O)CSc2ccc3nnc(-c4ccccc4)n3n2)no1 > 76.9 µM
c1ccc2[nH]c(CSc3nnc(-c4ccncc4)o3)nc2c1 > 76.9 µM
CC(C)C(=O)Nc1ccc(N2CCN(C(=O)c3cccs3)CC2)cc1 > 76.9 µM
Cc1cc(C)n2nc(C(=O)Nc3ccccc3N3CCOCC3)nc2n1 > 76.9 µM
COc1ccc(CN2C(=O)CCC2(C)C(=O)NCc2cccnc2)c(OC)c1 (centres undefined) > 76.9 µM
COc1[nH]c(/N=C/c2ccccc2)c(C#N)c1C#N > 76.9 µM
O=C(c1ccccc1)C1C(=O)c2ccccc2C1=O > 76.9 µM
COc1ccc(-n2c(CNC(=O)c3ccc(S(=O)(=O)N4CCCC4)cc3)n[nH]c2=S)cc1 > 76.9 µM
CCOC(=O)N1CCC(NCCNC(=O)c2ccccc2Cl)CC1 > 76.9 µM
COC(=O)c1cc(Br)c(=O)n(-c2ccccn2)c1 > 76.9 µM
O=S(=O)(NC1=NCCCCCC1)c1cccs1 > 76.9 µM
COC(=O)C1=C(N)OC2=C(C(=O)CC(C)(C)C2)C1c1ccoc1 (centres undefined) > 76.9 µM
COc1ccccc1N1CCN(C(=O)CSc2nc(-c3ccco3)cc(C(F)(F)F)n2)CC1 > 76.9 µM
COC(=O)C1CCN(C(=O)c2ccc(SC)cc2OC)CC1 > 76.9 µM
COc1ccc(C(=O)N2CCCC2)cc1S(=O)(=O)N1CCOCC1 > 76.9 µM
Cc1oc(C)c(C(=O)O)c1COc1ccc(C(=O)O)cc1 > 76.9 µM
C=CCN1C(=O)C2C(C(=O)NC)C3(C)C=CC2(O3)C1C(=O)NCc1ccc(OC)cc1 (centres undefined) > 76.9 µM
Cc1ccccc1-c1nnc2s/c(=C\c3ccc(N(C)C)cc3)c(=O)n12 > 76.9 µM
CCOc1ccccc1C1C(C(=O)OC)=CN(C)C=C1C(=O)OC > 76.9 µM
C=CCSc1nnc(NC(=O)c2ccc(S(=O)(=O)NCC3CCCO3)cc2)s1 (centres undefined) > 76.9 µM
O=C(CN1CCOCC1)N1CCCc2c1c(=O)oc1ccc(OCc3ccccc3)cc21 > 76.9 µM
CN(C)CCNC(=O)c1c(O)c2c([nH]c1=O)CCCC2 > 76.9 µM
CC1(C)CC(N2CCN(c3ccccc3)CC2)=CC(=[N+]2CCCC2)C1 > 76.9 µM
CC(=O)Nc1ccc2oc(-c3cc(F)c(F)cc3Cl)nc2c1 > 76.9 µM
CCC(C)c1ccc(NC(=O)CC(C)=O)cc1 (centres undefined)
CCOc1ccccc1N(CC(=O)OC)S(C)(=O)=O > 76.9 µM
Cc1nn(-c2ccc(Cl)cc2)c2sc(C(=O)N3CCN(c4ccccn4)CC3)cc12 > 76.9 µM
CCCOC(=O)Nc1sc2c(c1C(=O)OCC)CCC2 > 76.9 µM
CCOC(=O)c1ccc(NC(=O)CN2C(=O)CNC2=O)cc1 > 76.9 µM
COC(=O)c1[nH]c2cccc(Cl)c2c1NC(=O)CN(C)C1CCCCC1 > 76.9 µM
CCCCN1C(=O)c2ccc(C(=O)NC3=NCCS3)cc2C1=O > 76.9 µM
O=C(c1cnccn1)N1CCN(C/C=C/c2ccccc2)CC1 > 76.9 µM
CN=C1SC(CC(=O)Nc2cccc(Cl)c2Cl)C(=O)N1C (centres undefined) > 76.9 µM
Cc1cc(C)n2ncc(C(=O)Nc3ccc4c(c3)OCO4)c2n1 > 76.9 µM
CCOCCCNC(=O)CS(=O)(=O)Cc1nc(-c2cccc(OC)c2)oc1C > 76.9 µM
CC(=O)OCC(OC(C)=O)C(OC(C)=O)C(OC(C)=O)C(=O)Nc1ccccc1C (centres undefined) > 76.9 µM
O=C(O)C1CC(c2ccccc2F)=NO1 (centres undefined) > 76.9 µM
O=C(CSc1nnc(COc2cccc3cccnc23)o1)c1ccc(F)cc1 > 76.9 µM
COc1cc2c(cc1OC)CN(C(=O)CCCN1C(=O)c3ccccc3C1=O)CC2 > 76.9 µM
Cc1nn(CCCNC(=O)C2CCCO2)cc1Br (centres undefined) > 76.9 µM
O=C(c1ccccc1C(=O)N1CCN(c2ccc(F)cc2)CC1)N1CCN(c2ccc(F)cc2)CC1 > 76.9 µM
CSc1nnc(-c2cnccn2)n1Cc1ccccc1 > 76.9 µM
CCC(=O)NC(C)C(c1cccs1)N1CCOCC1 (centres undefined) > 76.9 µM
Cn1c(=O)c2c(nc(N3CCCC3)n2CC(O)CO)n(C)c1=O (centres undefined) > 76.9 µM
O=C(CSc1nnc(-c2ccco2)n1Cc1ccccc1)NC(=O)NCc1ccccc1 > 76.9 µM
O=C(O)c1ccc(CN2C(=O)c3ccccc3S2(=O)=O)cc1 > 76.9 µM
Cc1cc2cc3c(cc2nc1SCC(=O)O)OCCO3 > 76.9 µM
